Laboratory results reported in the supplement of paper PMC11417369.
± gives the standard deviation of the averaged measurements. This is one part of the list.

These sequences were tested on PfAP2-G AP2 domain (GST-tagged) (assay: gcPBM binding intensity (ln(normalized median fluorescence intensity)); higher = stronger DNA binding).
How it was run: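 GST-fused DNA-binding domains of P. falciparum, expressed in E. coli, were applied at about 25 μg on average for 1 h to an Agilent 4 × 180k array of primer-extended double-stranded 36-bp intergenic genomic probes and negative controls. Binding intensity is the highest Masliner-normalised natural-log median intensity across replicate spots of either probe orientation, measured with Alexa488 anti-GST antibody and a 488 nm scan.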
For “ATAAAACAAAAATATAAACACACATACATTGGTTTT [CACACA_site8809]”, the “gcPBM binding intensity (ln)” value was 9.83 ± 0.014. In the case of “TTGATTTACTATAGATGTACGTAAAATATAAATAAA [XGTACX_site8256]”, the “gcPBM binding intensity (ln)” value is reported as 11.5 ± 0.96. In the case of “AATTTAAAAGAAAAAGAAAAATAATAAACAGAAGCA [XGTACX_negctrl_site503]”, the “gcPBM binding intensity (ln)” value is reported as 9.805 ± 0.049. For “TGGGAAAATAATATTTATTTTATATATAAATATATA [CACACA_negctrl_site121]”, the “gcPBM binding intensity (ln)” value was 9.47 ± 0.12. “AATAAAACCCCGAAATCACACATTAAATGAAAAATA [CACACA_site4732]” was tested, and the “gcPBM binding intensity (ln)” value was 10 ± 0.057. For “AAAGCACCCATGCACACACACAAAGGAAAAGAAAAA [CACACA_site6249]”, the “gcPBM binding intensity (ln)” value was 10.3 ± 0.47. For “ATAAATGATAAAATTGCATGTGAATGTGAAAATATT [TGCATGCA_site251]”, the “gcPBM binding intensity (ln)” value was 10 ± 0.11. For “AAAATACTAGATAGGGGAAAAAAAAAAAAAAAAAAA [CACACA_negctrl_site1732]”, the “gcPBM binding intensity (ln)” value was 9.78 ± 0.42. For “TATTGTAATATTAGCACACATTACCTCACTACAAAT [CACACA_site5419]”, the “gcPBM binding intensity (ln)” value was 10.3 ± 0.18. “AACATGAAAATATATGCATTTGTATATATATATATA [TGCATGCA_negctrl_site16]” was tested, and the “gcPBM binding intensity (ln)” value was 9.95 ± 0.45. In the case of “TTGTTTTTCTTTGAATGTACTTAATGATTTCCAATT [XGTACX_site2499]”, the “gcPBM binding intensity (ln)” value is reported as 11.1 ± 0.64. In the case of “AATGGAAAAATAGGCACACACACATATATACATATA [CACACA_site1298]”, the “gcPBM binding intensity (ln)” value is reported as 9.95 ± 0.11. With “TCCATATATTTTAAAAGTACACATAAAAATTATTTA [XGTACX_site8127]” the “gcPBM binding intensity (ln)” value was 11.4 ± 0.99. “ATATAAATAAAATATACACACATACTGTTCATTTAA [CACACA_site7880]” was tested, and the “gcPBM binding intensity (ln)” value was 9.86 ± 0.11. For “TTTTTTTTTTATTTTGCACACTTCTAATTTAGTTCT [CACACA_site5828]”, the “gcPBM binding intensity (ln)” value was 10.2 ± 0.26. “TAAAATAAAACAAACACACACACACGGACACAAAAA [CACACA_site7754]” was tested, and the “gcPBM binding intensity (ln)” value was 11.4 ± 0.68. For “AAAAAAAAAAAAGATTGTACAGAATACTTTTAAAAT [XGTACX_site3576]”, the “gcPBM binding intensity (ln)” value was 10.7 ± 0.4. With “AAGTTAATGAAAAAATGTACCCAGAGTATTTTAAAA [XGTACX_site2997]” the “gcPBM binding intensity (ln)” value was 11.2 ± 0.71. In the case of “ATAAAATATAGATGCACACACATATAGATTTCATAC [CACACA_site7636]”, the “gcPBM binding intensity (ln)” value is reported as 9.92 ± 0.085. For “TGTATATTTTTTATTACACACTTTTTACTTTTTAGA [CACACA_site3069]”, the “gcPBM binding intensity (ln)” value was 9.975 ± 0.035. With “TTTTTTAATTGTGATACGTATATTATTTAATGATAA [GTGCAC_negctrl_site704]” the “gcPBM binding intensity (ln)” value was 10.5 ± 0.44. For “ATCAAACCATAAAAGAGTACAAAAGGATGATATTTT [XGTACX_site8883]”, the “gcPBM binding intensity (ln)” value was 11.3 ± 0.8. With “TATTTTAAAGAGAAAACATGCATTATATAGAACATT [TGCATGCA_site328]” the “gcPBM binding intensity (ln)” value was 9.8 ± 0.071. With “GATATAATTATATTATGGTGTTTTTGATAGATATTT [GTGCAC_negctrl_site313]” the “gcPBM binding intensity (ln)” value was 9.785 ± 0.021. “AGTATATACACGTGCGTGCACAGATATTCTTTTTTT [GTGCAC_site9398]” was tested, and the “gcPBM binding intensity (ln)” value was 10.4 ± 0.16. In the case of “ATGTTTTGCATATATTATATATTTATTTATTTTTTT [CACACA_negctrl_site729]”, the “gcPBM binding intensity (ln)” value is reported as 9.845 ± 0.049. In the case of “AGTGGACTTTTTTTTTTTTTTTTTTTTTTTTTATTA [CACACA_negctrl_site547]”, the “gcPBM binding intensity (ln)” value is reported as 11.3 ± 0.77. For “AGTAGTCTGGAGAAGAGTACATAGTATCTGGTAACC [XGTACX_site2043]”, the “gcPBM binding intensity (ln)” value was 11.3 ± 0.81. “ATGGAAATATATACATGTACATAAATATATATATAT [XGTACX_site8391]” was tested, and the “gcPBM binding intensity (ln)” value was 11.2 ± 0.61. In the case of “TATTTATTGTGATACTTATATTATTTTATGATTAAA [CACACA_negctrl_site901]”, the “gcPBM binding intensity (ln)” value is reported as 10.2 ± 0.19. “AGAGAGATGACAAAAAGATGAATAACGTTAAGGGAT [XGTACX_negctrl_site120]” was tested, and the “gcPBM binding intensity (ln)” value was 10.11 ± 0.049. In the case of “ATATACTATGATAATACATGCGATAATACATTTTTA [TGCATGCA_site387]”, the “gcPBM binding intensity (ln)” value is reported as 10 ± 0.2. For “AAGTATGTCGACTGTTGTACTTTTATCATTTATTAT [XGTACX_site1129]”, the “gcPBM binding intensity (ln)” value was 11.3 ± 0.71. For “GTATGGCGTATCATATGTACTAAAAAAAAATAAAAA [XGTACX_site5101]”, the “gcPBM binding intensity (ln)” value was 11.3 ± 0.82. “TATTTATCATCATATTGTACATTATATATATAAAAT [XGTACX_site6675]” was tested, and the “gcPBM binding intensity (ln)” value was 10.7 ± 0.39. In the case of “AATAAAAAAATGTCACGTACTTATTTTATTAAACCT [XGTACX_site3031]”, the “gcPBM binding intensity (ln)” value is reported as 11.2 ± 0.8. In the case of “TTATATGCTCAATGTTGTACATGTAGATATATATAT [XGTACX_site8211]”, the “gcPBM binding intensity (ln)” value is reported as 11.2 ± 0.8. For “ATATATATATATAGTGCACACATATAAAATATATAT [CACACA_site8884]”, the “gcPBM binding intensity (ln)” value was 10.6 ± 0.83. With “ATCTGTCGACAGGACAGTACACAGTAGCCAGTAACT [XGTACX_site2001]” the “gcPBM binding intensity (ln)” value was 11 ± 0.52. For “ATCCTACTATGTTATACACACAATTACTTTTTTCTC [CACACA_site3712]”, the “gcPBM binding intensity (ln)” value was 10.1 ± 0.12. “ATATGTAAAACTTCAAAAAAATATATTTTATGACGA [GTGCAC_negctrl_site324]” was tested, and the “gcPBM binding intensity (ln)” value was 9.76 ± 0.11. For “TTACAACAGAATGGTATTTTTTTATTTTAAAGAAAA [TGCATGCA_negctrl_site230]”, the “gcPBM binding intensity (ln)” value was 9.85 ± 0.014. “AATATTTATGTGAAGACACACAACTGTTTATTATAT [CACACA_site3447]” was tested, and the “gcPBM binding intensity (ln)” value was 10.02 ± 0.049.
